Experimental data published in the supplement of paper PMC3334620.
Over roughly 33,000 sequences, “E-score (-0.5 to 0.5)” has its median near -0.035; the highest 2% begin near 0.35. The list shows a part of the results.

Biological target: T1, Pdr3 (UniProt P33200)
T1 sequence: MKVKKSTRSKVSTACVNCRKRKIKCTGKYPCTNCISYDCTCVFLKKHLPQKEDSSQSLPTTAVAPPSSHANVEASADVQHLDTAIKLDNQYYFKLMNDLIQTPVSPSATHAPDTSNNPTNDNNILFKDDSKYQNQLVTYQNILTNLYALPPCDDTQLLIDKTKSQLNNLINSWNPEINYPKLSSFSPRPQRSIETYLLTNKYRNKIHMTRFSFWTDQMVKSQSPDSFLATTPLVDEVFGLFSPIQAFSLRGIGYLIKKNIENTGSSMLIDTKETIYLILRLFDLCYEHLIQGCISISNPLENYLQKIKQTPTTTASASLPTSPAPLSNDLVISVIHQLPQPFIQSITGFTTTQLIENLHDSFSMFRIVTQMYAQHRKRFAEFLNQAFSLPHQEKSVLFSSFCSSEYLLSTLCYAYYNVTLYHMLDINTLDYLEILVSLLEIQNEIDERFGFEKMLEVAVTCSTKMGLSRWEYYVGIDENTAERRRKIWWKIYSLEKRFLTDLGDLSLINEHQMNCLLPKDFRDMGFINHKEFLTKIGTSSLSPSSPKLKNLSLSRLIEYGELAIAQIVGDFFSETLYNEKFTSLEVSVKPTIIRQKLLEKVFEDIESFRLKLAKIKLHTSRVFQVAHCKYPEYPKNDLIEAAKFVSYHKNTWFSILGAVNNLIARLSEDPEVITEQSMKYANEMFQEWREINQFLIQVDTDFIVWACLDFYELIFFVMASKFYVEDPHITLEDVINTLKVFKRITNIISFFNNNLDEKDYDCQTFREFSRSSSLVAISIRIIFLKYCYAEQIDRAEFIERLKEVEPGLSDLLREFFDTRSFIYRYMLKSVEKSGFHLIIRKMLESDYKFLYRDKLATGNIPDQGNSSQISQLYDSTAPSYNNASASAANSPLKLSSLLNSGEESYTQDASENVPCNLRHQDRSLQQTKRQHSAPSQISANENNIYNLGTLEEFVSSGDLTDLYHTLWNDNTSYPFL
Assay: PBM E-score (8-mer binding enrichment) (E-score (-0.5 to 0.5)); higher = stronger / more preferred TF binding; most listed sequences are background and not binding sites
Conditions: protein concentration: 200 nM; construct: GST-full length
Method in brief: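 Detection of bound protein used fluorescent anti-GST, with scans normalised by masliner. The proteins were GST-tagged yeast transcription factors applied at about 100-200 nM to universal all-10-mer Agilent arrays made double-stranded by primer extension. Each ungapped eight-base word, pooled with its reverse complement, was scored with an E-score from the Universal PBM Analysis Suite.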

Sequence | PBM E-score
CCGCGCCC | 0.204
AAGAGTAC | -0.118
AATAGAGC | 0.0603
GGCCCGGA | 0.336
AAGCATCA | 0.0281
ACCACTTC | 0.00985
AACGCAAT | 0.115
CGGTGTAG | -0.0315
ATAGTACA | 0.0326
AGCTGCGC | 0.0824
TAAATCTA | -0.0322
AGGGAAGG | -0.211
CCATTCTC | 0.00325
ACTTGCGC | 0.0195
ATACGTGA | -0.134
CCCAGCCA | 0.0134
ATGTCTAG | -0.064
CCTCGGTA | -0.105
ACGTCTTC | -0.0882
ACCTATGC | -0.124
CGCGTTAG | -0.0137
ATGAACTA | 0.0325
GATGGTGC | -0.341
AGGTGCTA | -0.16
AGGCCGGC | 0.291

Sequence | PBM E-score
CCCGTTAG | 0.00367
ATATGAAT | 0.172
ACCCCAGC | 0.0399
ATTACGAA | -0.115
CCCGACAG | 0.0838
ACGCAAAC | -0.165
CGGCATAG | 0.183
TATTTTAA | 0.0515
CCCATCAG | -0.2
GAGTGATC | 0.0656
ATTTACGA | 0.0189
ATCTGACC | 0.168
TAGGCAGA | -0.089
GCTGGGCA | -0.0838
AGGTCCTC | 0.0684
AGCGTGAA | -0.352
ACCAACTA | -0.017
TCCGGAGA | 0.44
CATCATCG | 0.0761
CCACCTAG | -0.0573
AAGACCGC | -0.0804
CTGTAGAC | -0.0935
ATACTCGA | -0.103
CGCGCGCG | 0.372
TCGCTGCA | -0.112

Sequence | PBM E-score
CTGGATTA | 0.267
TTACACAA | -0.0614
CGCCGTCA | 0.195
ACCCTTCT | -0.177
TCCGCTAA | 0.277
CGCTGTAC | -0.102
ACATGGGC | 0.144
CACGGAAG | 0.386
GAGCGCGA | 0.213
AACGTAGC | -0.31
ATGACTTA | -0.113
GCTGCTCC | 0.131
GATGGTGA | -0.0273
CCCACCAC | 0.136
AACCTCCA | -0.224
GACTGCGA | -0.0659
GCGGGAAC | 0.286
ATGCCTAA | -0.117
CTAACGTC | -0.133
CGCTGGAG | -0.038
CACGAACG | 0.05
ACCGCCTG | 0.00902
ATCTACCA | -0.00908
GAGTGACA | 0.0178
GAGGACTA | -0.188

Sequence | PBM E-score
AGGACACG | 0.0456
AATTATCA | -0.0246
AACTGGAC | -0.137
ATACGCAA | -0.199
ACTGGGGA | 0.021
AGTCTTGA | -0.189
AAGAAGCG | -0.0756
CGATTCAC | -0.0141
GAACGAGC | 0.184
AGGGTCGC | 0.0759
AATAAGCA | -0.145
CCGGGCTC | 0.224
ACGCCAAG | -0.212
TACTGATA | 0.0935
AGTCACAC | -0.18
CTTTTTGC | 0.0918
AGATGTAG | -0.089
ATTTAGAC | -0.00798
GCGCGTAA | 0.083
CTAGTTCA | -0.0835
AGGGATAG | -0.138
AGATCGGC | 0.134
AACTTTCA | -0.0834
GCTCTCCA | -0.247
CTGACCGA | -0.00863

Sequence | PBM E-score
AAAGAACC | 0.0551
GCAGCGTA | -0.109
AAAGGCCT | -0.348
AACCCCAG | -0.0219
AACTGCGA | -0.0651
ATTTTTCC | 0.216
CTGGAAGA | -0.108
AACCCCCG | -0.0723
GCTGCTGA | -0.0859
AGGTGCGA | -0.142
AGAAAGAA | -0.0141
CAAGCTGG | -0.199
TAGATAGA | -0.143
TCATTCGA | -0.0606
CCAACGCC | -0.0466
ATTGCAAC | 0.115
AAACCGGG | 0.176
ATTAGCAG | -0.0762
AGTTTCGA | -0.0452
CCATTGGC | -0.104
TCATTAGA | -0.15
AGACCTGG | -0.0795
TCGCGCCA | 0.0694
ATTACTAC | -0.195
ACAGCCGT | 0.0938

Sequence | PBM E-score
CGTAGGAA | -0.163
ATTACCGG | 0.243
TCTAGTAA | -0.01
CATCCTGG | -0.0192
ATGGATGG | -0.0268
CGGCTCGA | 0.174
ACAAAGCG | -0.0901
GATTAACA | -0.0315
ACGGAGAC | 0.321
GCTAGCGA | -0.109
AAGTTATA | -0.0822
ACCGAACC | 0.00677
ATGCTAGA | -0.298
GGCGTATA | -0.203
TAGTCGGA | 0.322
CTAACTCC | 0.0377
TTATCGAA | -0.00898
ATCGTAGA | -0.204
AACGAAAA | -0.0107
AACGAGAA | -0.0948
CTTACGTA | -0.191
TACCTACA | -0.106
AACTTTCC | 0.238
ATAAGAAA | 0.0247
ACTAACCG | 0.1

Sequence | PBM E-score
ACCCGAGT | 0.218
ATTTCCCC | 0.0635
GATGCACA | 0.0149
GTTGTCGA | -0.00166
ATGATGTA | 0.036
AGCACATA | -0.113
ACTCGGGC | 0.0775
AGGTGGTG | -0.202
CTATAGAA | -0.188
GATGATCC | 0.158
CTAACCGC | -0.0294
CCGGAGAG | 0.363
ATGCTTTC | -0.0701
GGTATTTA | 0.0219
AAAAGAAG | -0.0181
ACGGACCG | 0.309
GAACTTGA | 0.0655
CCTTGAAG | -0.269
ACCCCATA | 0.0987
AGAAGGAT | -0.296
GCGTTATA | -0.00346
GACTCCCA | -0.241
